Measured values as given in PubChem BioAssay AID485281 (National Center for Advancing Translational Sciences (NCATS), 2010).
Screen size: about 350,000 compounds; about 260 (0.074%) were called active. The inconclusive results got no clear call from the source; some entries with a clear call stand among them for comparison. The call rests on the fitted dose curve; in most records, active means well fitted inhibition curve with a large enough effect; inconclusive means small, poorly fitted or top-dose-only effect; inactive means no such curve, though single readings can be large or run the other way. Potencies of inconclusive entries are doubtful fits and often do not repeat.
Further: nearly all actives have a fitted effect of over 20% in size.
On the % scale 0 is the no-effect control and ±100 the full control effect; potency means the concentration at half of the fitted maximal effect; tags describe the fitted curve by direction and shape.

These molecules were tested against Ferritin light chain (Equus caballus) (UniProt P02791) (assay: qHTS Assay for Identification of Novel General Anesthetics). Settings: apoferritin/1-aminoanthracene competitive binding, fluorescence; activity change, negative = displacement: at 77.5 µM (top of the series).
UniProt P02791, sequence (P02791 whole entry, looked up): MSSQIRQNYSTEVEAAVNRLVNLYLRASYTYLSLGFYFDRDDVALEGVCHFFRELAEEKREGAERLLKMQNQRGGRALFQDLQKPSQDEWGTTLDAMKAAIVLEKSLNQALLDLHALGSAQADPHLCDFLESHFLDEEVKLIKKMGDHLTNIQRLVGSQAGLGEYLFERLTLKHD
In short: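 Concentration-response curves derived by four-parameter Hill fitting of normalized fluorescence, where compounds displaced 1-AMA from 10 uM horse apoferritin following a brief 10 min room-temperature incubation; propofol titration acted as positive control.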
For `O=c1[nH]c2ccc(S(=O)(=O)N3CCCCC3)cc2s1`, the Potency was inconclusive: 31.6 µM [inhibitor, partial curve]. For `Cc1cccc(Cl)c1OCCCn1ccnc1`, the “activity change, negative = displacement” value was inactive: 0.397%. For `CC(C)c1cc(-c2cc(C(=O)NCc3ccccc3)on2)nc(NC2CCCC2)n1`, the Potency was inconclusive: 14.1 µM [inhibitor, partial curve]. With `Cc1ccc(CCNC(=O)CCn2c(=O)c3cccn3c3ccc(F)cc32)cc1` the Potency was inconclusive: 10 µM [inhibitor, full curve]. With `CN1C(=O)C2C(c3ccc(N(C)C)cc3)NN(Cc3ccccc3)C2C1=O` (stereo not given) the Potency was inconclusive: 31.6 µM [inhibitor, single point]. `COC(=O)c1cc2ccccc2oc1=O` was tested, and the “activity change, negative = displacement” value was inactive: 9.11%. `Cc1cc(C)c(N=C2C(=O)Nc3ccccc32)c(C)c1` was tested, and the “activity change, negative = displacement” value was inactive: -4.82%. In the case of `CC(C)(C)OC(=O)NCCC(=O)N/N=C/c1ccc2ncccc2c1`, the Potency is reported as inconclusive: 20 µM [inhibitor, partial curve]. In the case of `COc1ccccc1CNc1ccc([N+](=O)[O-])cc1C`, the Potency is reported as inconclusive: 14.1 µM [inhibitor, partial curve]. For `O=C(CSc1nnc(-c2ccco2)n1Cc1ccccc1)OC1CCCCC1`, the Potency was inconclusive: 39.8 µM [inhibitor, partial curve]. With `Cc1nc(-c2ccc(Cl)cc2)sc1CCNC(=O)c1ccco1` the Potency was inconclusive: 28.2 µM [inhibitor, partial curve]. `COc1cc(-c2nc3sccn3c2Nc2cccc(C)c2)ccc1O` was tested, and the Potency was inconclusive: 28.2 µM [inhibitor, partial curve]. With `Cc1coc2cc3oc(=O)c(CC(=O)NCc4ccc(F)cc4)c(C)c3cc12` the “activity change, negative = displacement” value was inactive: -19.4%. `CC1(C)C2CCC1(C)C(OC(=O)CCn1ccnc1)C2` (stereo not given) was tested, and the Potency was inconclusive: 15.8 µM [inhibitor, partial curve]. In the case of `O=C(NCc1ccccc1Cl)c1nnc(CS(=O)(=O)c2ccccc2)o1`, the Potency is reported as inconclusive: 14.1 µM [inhibitor, partial curve]. With `CCC1CCCCN1S(=O)(=O)c1ccc(NC(=O)c2cc(=O)c3ccccc3o2)cc1` (stereo not given) the Potency was inconclusive: 5.62 µM [inhibitor, partial curve]. `CCN(CC)CCOC(=O)c1ccc(NC(=O)c2ccc(Cl)c(S(=O)(=O)N3CCCCCC3)c2)cc1` was tested, and the Potency was inconclusive: 31.6 µM [inhibitor, partial curve]. With `COc1cc(CCC(=O)NCc2ccc(S(N)(=O)=O)cc2)cc(OC)c1OC` the “activity change, negative = displacement” value was inactive: 17.8%. With `Cn1nc(-c2ccc(Cl)cc2)c2cc(C(=O)NCCCN3CCCC3)sc21` the “activity change, negative = displacement” value was inactive: -21.1%. With `CC[C@H](C)[C@H](NC(=O)[C@H](Cc1ccc(O)cc1)NC(=O)[C@@H]1CCCN1C(=O)[C@H](CCCCN)NC(=O)[C@@H](N)CCCCN)C(=O)N[C@@H](CC(C)C)C(=O)O` the “activity change, negative = displacement” value was inactive: 7.38%.
